Data: the supplement of paper PMC10326071
Values joined by “and” are separate entries in the source; they are usually repeats but may differ in a detail not shown here. Equal values may be shown once. This is one part of the list. Repeats are few or missing, and single values can be far off.

Test system: SARS-CoV-2 nsp3 SARS-unique domain core (SUD-core, nsp3 residues 413-676)
Test: dissociation rate constant koff (BLI); higher = faster dissociation
Conditions: 100 µM; 25 °C
Experimental: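 Primary BLI (Octet RED96e) screen of MedChemExpress Nucleotide Compound and Kinase Inhibitor libraries (1770 compounds) against biotinylated SARS-CoV-2 SUD-core on SSA biosensors. Each compound was tested once at 100 uM in PBS pH 7.4, 1% DMSO; 150 s association, 180 s dissociation, 25 C. Kd and koff are apparent values from single-concentration 1:1 fits. Only fits with full R^2 >= 0.9 are kept; fits at the software floor (<1e-12 M, <1e-7 /s) and placeholder values are excluded.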

Row | SMILES | dissociation rate constant koff
1 | Cn1cc(C2=C(c3cn(CCCSC(=N)N)c4ccccc34)C(=O)NC2=O)c2ccccc21 | 0.0164 s⁻¹
2 | Nc1nn2cc(F)cnc2c1C(=O)Nc1cncc(F)c1N1CCC(C(=O)N2CCN(C3COC3)CC2)CC1 | 0.0417 s⁻¹
3 | NC(=O)c1cnc(N[C@@H]2CCCC[C@@H]2N)nc1Nc1cccc(-n2nccn2)c1 | 0.561 s⁻¹
4 | Nc1ncn([C@@H]2O[C@H](CO)[C@@H](O)[C@H]2O)c(=O)n1 | 0.0634 s⁻¹
5 | Cc1ccc(NC(=O)c2ccc(CN3CCN(C)CC3)cc2)cc1Nc1nc(-c2cccnc2)cs1 | 0.105 s⁻¹
6 | CCN(CC)CCC(=O)N1N=C(c2c(-c3ccccc3)c3cc(Br)ccc3[nH]c2=O)CC1c1ccc(Br)cc1 (stereo not given) | 0.0737 s⁻¹
7 | CNC(=O)c1cc(Oc2ccc(NC(=O)Nc3cc(C(C)(C)C)nn3-c3ccc4ncccc4c3)c(F)c2)ccn1 | 0.0631 s⁻¹
8 | CC(c1ccc(-c2cnc3c(-c4ccc(S(N)(=O)=O)c5ccccc45)cnn3c2)cc1)N1CCCC1 (stereo not given) | 0.122 s⁻¹
9 | CC[C@@]1(c2ccccc2)C2=C(CC(C)(C)CC2=O)Nc2[nH]ncc21 | 2.07 s⁻¹
10 | COc1cc(Nc2ncc(F)c(Nc3ccc4c(n3)N(COP(=O)(O)O)C(=O)C(C)(C)O4)n2)cc(OC)c1OC | 0.619 s⁻¹ and 1.74 s⁻¹
11 | O=c1ccn([C@H]2C[C@H](O)[C@@H](COP(=O)(O)OP(=O)(O)OP(=O)(O)O)O2)c(=O)[nH]1 | 0.0195 s⁻¹
12 | CN(C)CCOc1ccc(-c2nc(-c3ccc4c(c3)CC/C4=N/O)c(-c3ccncc3)[nH]2)cc1 | 0.206 s⁻¹
13 | C[C@@]1(C(=O)Nc2ccc(F)nc2)CCCN1c1nc(Nc2cc(C3CC3)[nH]n2)c2cccn2n1 | 0.778 s⁻¹
14 | O=C(Nc1cn[nH]c1-c1nc2ccc(CN3CCOCC3)cc2[nH]1)NC1CC1 | 0.181 s⁻¹
15 | Cn1cnc2c(ncn2[C@@H]2O[C@H](CO)[C@@H](O)[C@H]2O)c1=O | 0.122 s⁻¹
16 | Nc1nc(Nc2ccc(S(N)(=O)=O)cc2)nn1C(=O)c1c(F)cccc1F | 0.817 s⁻¹
17 | O=C(Nc1cccc(-c2nncn2C2CC2)c1)c1cc(-n2cnc(C3CC3)c2)ccn1 | 0.171 s⁻¹
18 | COc1cc2nc(C)nc(N[C@H](C)c3cc(N)cc(C(F)(F)F)c3)c2cc1O[C@H]1CCOC1 | 1.08 s⁻¹
19 | O=C(NOCC(O)CO)c1cc(Br)c(F)c(F)c1Nc1ccc(I)cc1F (stereo not given) | 0.491 s⁻¹
20 | Cc1cc(-c2cc(O)ccc2Cl)cc2nnc(Nc3ccc(OCCN4CCCC4)cc3)nc12 | 0.00325 s⁻¹

Row | SMILES | dissociation rate constant koff
21 | Cc1cn([C@H]2C=C[C@@H](CO)O2)c(=O)[nH]c1=O | 0.0437 s⁻¹
22 | O=C(NCCCNC(=O)Nc1cccc(C2=NCCN2)c1)Nc1cccc(C2=NCCN2)c1 | 1.07 s⁻¹
23 | COc1cc(OC)c(CCC(=O)c2ccc(O)cc2)c(OC)c1 | 0.66 s⁻¹
24 | O=c1c(O)c(-c2ccc(O)c(O)c2)oc2cc(O)cc(O)c12 | 0.0106 s⁻¹
25 | CC#CC(=O)N1CC[C@@H](n2c(=O)n(-c3ccc(Oc4ccccc4)cc3)c3c(N)ncnc32)C1 | 0.414 s⁻¹
26 | COc1ccc(Br)c(C=O)c1O | 16.3 s⁻¹
27 | Nc1ccn([C@@H]2O[C@H](CO)[C@@H](O)[C@@H]2O)c(=O)n1 | 0.0194 s⁻¹ and 0.0114 s⁻¹
28 | CN1CCN(Cc2ccc(NC(=O)Nc3ccc(Oc4ccnc(N)n4)cc3)cc2C(F)(F)F)CC1 | 0.232 s⁻¹
29 | COc1ccc2c(Nc3cc(NC(=O)c4cccc(C(C)(C)C#N)c4)ccc3C)ncnc2c1 | 0.176 s⁻¹
30 | Cc1[nH]c(/C=C2\C(=O)Nc3ccc(S(=O)(=O)Cc4c(Cl)cccc4Cl)cc32)c(C)c1C(=O)N1CCC[C@@H]1CN1CCCC1 | 0.159 s⁻¹
31 | Nc1[nH]c(=O)ncc1F | 0.0102 s⁻¹
32 | OC[C@H]1O[C@@H](n2cnc3c2ncn2ccnc32)C[C@@H]1O | 0.0802 s⁻¹
33 | C[C@@]1(F)[C@H](O)[C@@H](CO)O[C@H]1n1ccc(N)nc1=O | 0.00845 s⁻¹
34 | C/C(=N\NC(=O)c1ccc(C)c(Br)c1)c1ccc(O)cc1O | 4.1e-06 s⁻¹
35 | CCN1CCN(Cc2ccc(NC(=O)c3ccc(C)c(Oc4ncnc5[nH]c(C)cc45)c3)cc2C(F)(F)F)CC1 | 0.103 s⁻¹
36 | C=CC(=O)Nc1cc2c(Nc3ccc(F)c(Cl)c3)ncnc2cc1C#CC(C)(C)N1CCN(C)CC1 | 0.0579 s⁻¹
37 | CCC(C)N1c2ccccc2C(=O)N(C)c2cnc(Nc3ccc(C(=O)N4CCC(N5CCN(C)CC5)CC4)cc3OC)nc21 (stereo not given) | 1.73 s⁻¹
38 | C[C@H](Nc1ncnc2nc[nH]c12)c1nc2ccc(F)cc2c(=O)n1-c1ccccc1 | 0.808 s⁻¹
39 | Cc1cc(Nc2cc(N3CCN(C)CC3)nc(Sc3ccc(NC(=O)C4CC4)cc3)n2)n[nH]1 | 0.87 s⁻¹
40 | CCN1CCN(Cc2ccc(NC(=O)c3ccc(C)c(NC(=O)c4cncc(-c5cccs5)c4)c3)cc2C(F)(F)F)CC1 | 0.0321 s⁻¹
